Among all 310,000 compounds or so, about 18,000 (5.8%) were called active. The shares of active, inactive and inconclusive entries below differ from those in the screen. Calls come from the whole dose curve; as a rule, active = well fitted inhibition curve with a large enough effect; inconclusive = small, poorly fitted or top-dose-only effect, or another doubt; inactive = no such curve, though single readings can be large or run the other way. Potencies of inconclusive entries are left out as doubtful fits.
Experiment: Primary qHTS for delayed death inhibitors of the malarial parasite plastid, 48 hour incubation
Settings: P. falciparum luciferase growth in erythrocytes; series mostly up to 28.7 µM; activity change, negative = inhibition: at the top concentration
Procedure, shortened: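 Here the parasites carry a stable luciferase gene and grow inside erythrocytes in Albumax-based RPMI medium with compound for one erythrocytic cycle. Activity is scored as loss of luminescent signal.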
% is set by controls: 0 for no effect and ±100 for the full control effect; potency is the fitted concentration of half-maximal effect; tags give direction and shape of the fitted curve.

Row | Compound | Potency | activity change, negative = inhibition
1 | Brc1ccc(CN2C3=NCCCN3c3ccccc32)cc1 | active: 11.7 µM | –
2 | COc1ccc(N2CCN(c3nc(Cl)nc(N4CCOCC4)n3)CC2)cc1 | inconclusive [inhibitor, partial curve] | –
3 | CCNc1ccc(N=Nc2c(C)n(C)n(-c3ccccc3)c2=O)cc1 | – | inactive: 15.3%
4 | COc1ccc2c(c1)C(C)=CC(C)(C)N2S(=O)(=O)c1ccc(C)cc1 | inconclusive [inhibitor, single point] | –
5 | Cc1ccc(C(c2nnnn2CCc2ccccc2)N2CCSCC2)cc1 (stereo unspecified) | inconclusive [inhibitor, single point] | –
6 | O=C1C=CC(=O)N1c1ccc(O)cc1 | – | inactive: 36.2%
7 | O=C(Nc1cc(S(=O)(=O)N2CCCCC2)ccc1N1CCOCC1)c1ccc(F)cc1 | inconclusive [inhibitor, partial curve, poor fit] | –
8 | COc1ccc(NC(=O)CC2C(=O)N(C)C(=S)N2Cc2ccncc2)cc1 (stereo unspecified) | inconclusive [inhibitor, partial curve, poor fit] | –
9 | c1ccc(Nc2nc(NCc3ccco3)c3ccccc3n2)cc1 | inconclusive [inhibitor, full curve] | –
10 | COc1cccc(CC(=O)NNC(=O)c2c(-c3ccccc3)noc2C)c1 | inconclusive [inhibitor, full curve, poor fit] | –
11 | Cc1cccc2[nH]c(CN(C)C(=O)CC3C(=O)NCCN3CC(C)(C)C)nc12 (stereo unspecified) | inconclusive [inhibitor, single point] | –
12 | CCOc1ccc(/C=C/C(O)=C2/C(=O)NC3(C)CC2c2ccccc2O3)cc1OC (stereo unspecified) | inconclusive [inhibitor, single point] | –
13 | COc1cc(/C=C/C(=O)c2ccc(NS(=O)(=O)c3ccc(C)cc3)cc2)cc(OC)c1O | active: 11.7 µM | –
14 | COC(=O)Nc1ccc(=O)n(Cc2c(Cl)cccc2Cl)c1 | – | inactive: -4.27%
15 | O=C(N/N=C/c1sc(N2CCOCC2)nc1-c1ccccc1)c1cccc(S(=O)(=O)N2CCOCC2)c1 | active: 1.85 µM | –
16 | Cc1ccc(NC(=O)c2ccc3c(c2)N(CC(=O)NC(C)C)C(=O)C(C)(C)O3)cc1 | – | inactive: -2.33%
17 | CC(=O)Nc1nonc1NC(=O)COc1ccccc1 | inconclusive [inhibitor, full curve, poor fit] | –
18 | COc1ccccc1C(=O)NCCCNc1ccc([N+](=O)[O-])cc1 | – | inactive: 0.816%
19 | Cc1ccc(CNC(=O)c2ccc(COc3ccccc3)cc2)cc1 | – | inactive: -5.16%
20 | COc1ccccc1-c1nnc(SCC(=O)c2c(N)n(C3CC3)c(=O)[nH]c2=O)o1 | inconclusive [inhibitor, partial curve, poor fit] | –
21 | Oc1ccc(/C=N\Nc2nncc(-c3ccccc3)n2)cc1 | inconclusive [inhibitor, full curve] | –
22 | C(=C\c1ccccc1)/C=N/Nc1nc2ccccc2[nH]1 | inconclusive [inhibitor, full curve, poor fit] | –

Row | Compound | Potency | activity change, negative = inhibition
23 | CCc1ccc(CN(C(=O)COc2c(C)cccc2C)C2CCS(=O)(=O)C2)cc1 (stereo unspecified) | inconclusive [inhibitor, partial curve] | –
24 | Cc1ccccc1NC(=O)N1CCCN(c2ccc(C#N)cn2)CC1 | inconclusive [inhibitor, single point] | –
25 | C=CCn1c(SCC(=O)c2c(N)n(C3CC3)c(=O)[nH]c2=O)nnc1-c1ccc(OC)cc1 | inconclusive [inhibitor, partial curve, poor fit] | –
26 | Cc1ccc2cc(CN(CCN3CCCC3)C(=O)Nc3ccccc3)c(=O)[nH]c2c1C | active: 10.4 µM | –
27 | COCCN(C(=O)CSCC(=O)Nc1cccc(C)c1)c1c(N)n(Cc2ccccc2)c(=O)[nH]c1=O | – | inactive: 1.03%
28 | COc1ccc(OC)c(NC(=S)N2CCC(C(O)(c3ccccc3)c3ccccc3)CC2)c1 | active: 9.28 µM | –
29 | C[C@H](NC(=O)C1CCN(S(=O)(=O)c2ccccc2)CC1)C(=O)NCc1ccc(Cl)c(Cl)c1 | – | inactive: 15.1%
30 | COc1ccc(CCN(C(=O)c2ccccc2)C2=CC3CCC(C2)N3C)cc1OC (stereo unspecified) | – | inactive: 0%
31 | CCCN1C2CCCC1CC(NC(=O)NC13CC4CC(CC(C4)C1)C3)C2 (stereo unspecified) | inconclusive [inhibitor, full curve] | –
32 | COc1cc2oc3ccccc3c2cc1N(CC(=O)N1CCCCC1)S(=O)(=O)c1ccc(C)cc1 | inconclusive [inhibitor, partial curve, poor fit] | –
33 | CC(=O)NC(C(=O)c1ccccc1)N1CCCCC1 (stereo unspecified) | inconclusive [inhibitor, partial curve, poor fit] | –
34 | COc1ccccc1NC(=O)CSc1nnc2ccc(-c3ccccn3)nn12 | inconclusive [inhibitor, partial curve, poor fit] | –
35 | CCOC(=O)CSc1nnc(NC(=O)c2cccc([N+](=O)[O-])c2)s1 | – | inactive: -22.4%
36 | COc1ccc(C(=O)NCc2nnc(SCC(=O)Nc3nnc(C)s3)o2)cc1 | inconclusive [inhibitor, partial curve, poor fit] | –
37 | CCOC(=O)C1CCN(c2ncnc3c2c(-c2ccccc2)cn3-c2ccc(C)cc2)CC1 | inconclusive [inhibitor, single point] | –
38 | Cc1cc(N/N=C/c2cccc([N+](=O)[O-])c2)nc(-n2nc(C)cc2C)n1 | inconclusive [inhibitor, full curve, poor fit] | –
39 | COCCNC(=O)c1cc2c(=O)[nH]c3ccccc3c2s1 | inconclusive [inhibitor, full curve, poor fit] | –
40 | CCCc1ccc(S(=O)(=O)NCc2nnc(SC)n2C)cc1 | – | inactive: 37.6%
41 | OCCNCCc1c[nH]c2ccc(OCc3ccccc3)cc12 | inconclusive [inhibitor, single point] | –
42 | CCc1ccc(N=c2c([N+](=O)[O-])nn(-c3ccc4c(c3)OCCO4)n2O)cc1 | – | inactive: 7.58%
43 | CN(CCn1ccnc1)Cc1cn(-c2ccccc2)nc1-c1ccc2c(c1)OCO2 | inconclusive [inhibitor, partial curve] | –
44 | COc1cc(OC)cc(N(C(=O)c2ccco2)C(C(=O)NC2CCCC2)c2ccc(N3CCOCC3)cc2)c1 (stereo unspecified) | inconclusive [inhibitor, partial curve] | –

Row | Compound | Potency | activity change, negative = inhibition
45 | Cc1ccc(-c2csc(N(Cc3ccccc3)C(=O)COc3ccccc3)n2)cc1 | – | inactive: 41.1%
46 | Cc1cc(/C=C2/C(=N)N3C(=NC2=O)SN=C3S(C)(=O)=O)c(C)n1-c1ccc(F)cc1 | inconclusive [inhibitor, single point] | –
47 | CCOc1ccc(CC(=O)N2CCN(c3ccc(N4CCOCC4)nn3)CC2)cc1OCC | inconclusive [inhibitor, partial curve, poor fit] | –
48 | COC(=O)N/N=C/c1cc(N=Nc2ccccc2)ccc1O | inconclusive [inhibitor, single point] | –
49 | CCn1c(SCC(=O)Nc2cc(C)on2)nc2c(c1=O)SC(C)C2 (stereo unspecified) | inconclusive [inhibitor, single point] | –
50 | CC(C)CC(=O)NC(c1ccccc1Cl)c1c(O)ccc2ccccc12 (stereo unspecified) | inconclusive [inhibitor, single point] | –
51 | COc1ccc(CN2CCN(C(=O)C3CCC(CNS(=O)(=O)c4ccc(C)cc4)CC3)CC2)c(OC)c1OC (stereo unspecified) | – | inactive: -3.68%
52 | CCOC(=O)C1CCN(c2nc3ccccc3nc2C(C#N)C(=O)OCCOC)CC1 (stereo unspecified) | inconclusive [inhibitor, partial curve, poor fit] | –
53 | Cc1ccc2c(c1)c(C)c(C)n2CC(O)CN1CCOCC1 (stereo unspecified) | active: 11.7 µM | –
54 | Cc1noc(C)c1COC(=O)c1cccc(S(=O)(=O)N2CCCCCC2)c1 | inconclusive [inhibitor, single point] | –
55 | O=C(Cn1cncn1)NCc1cccc(OC(F)F)c1 | inconclusive [inhibitor, single point] | –
56 | CC(=O)c1cccc(NC(=O)CCc2nc3sc4c(c3c(=O)[nH]2)CCCC4)c1 | inconclusive [inhibitor, single point] | –
57 | COCCn1nnnc1CN1CCC(NC(=O)c2ccc(Br)cc2)CC1 | inconclusive [inhibitor, single point] | –
58 | CCC(=O)Nc1cccc2c1C(=O)N(C)C2=O | inconclusive [inhibitor, single point] | –
59 | CCN(CC)S(=O)(=O)c1cccc(NC(=O)CCNC(=O)NC23CC4CC(CC(C4)C2)C3)c1 | inconclusive [inhibitor, single point] | –
60 | CC/C(=N\N=C1\SC(C)C(=O)N1Cc1ccco1)c1ccccc1 (stereo unspecified) | inconclusive [inhibitor, single point] | –
61 | CN(c1ccccc1)S(=O)(=O)c1cc(Cl)ccc1Cl | inconclusive [inhibitor, full curve, poor fit] | –
62 | CC(=O)NC(c1ccco1)c1cc(Br)c2cccnc2c1O (stereo unspecified) | inconclusive [inhibitor, single point] | –
63 | COc1c(Cl)cc(Cl)cc1C(=O)Nc1ccc(CN2CCOCC2)cc1 | – | inactive: 21.1%
64 | COc1cccc(C2N(c3ccccc3)CCN2c2ccccc2)c1OC | inconclusive [inhibitor, single point] | –
65 | COc1ccc(-c2nnc(SCC(=O)N(C)C3CCS(=O)(=O)C3)n2N)cc1OC (stereo unspecified) | inconclusive [inhibitor, full curve, poor fit] | –
66 | Cc1nc(C(=O)NCc2ccccc2)sc1C1(C)CC(c2cccc([N+](=O)[O-])c2)=NO1 (stereo unspecified) | inconclusive [inhibitor, single point] | –

From PubChem BioAssay AID504832 (National Center for Advancing Translational Sciences (NCATS), 2011)
